From US20180312565A1 (Affibody, published 2018) come the findings set out here.

First the molecules themselves.
B1: Z18060-ABD (designed binder)
chain: AQHDEALEVDAKYAKERNSAAYEILYLPNLTKQQKWAFIWKLDDDPSQSSELLSEAKKLNDSQAPKVDYVLAEAKVLANRELDKYGVSDYYKNLINNAKTVEGVKALIDEILAALPYVPG
notes: domain: GA3
B2: Z18070-ABD (designed binder)
chain: AQHDEALEVDAKYAKERNAAAYEILYLPNLTNHQKWAFIWKLDDDPSQSSELLSEAKKLNDSQAPKVDYVLAEAKVLANRELDKYGVSDYYKNLINNAKTVEGVKALIDEILAALPYVPG
notes: domain: GA3
B3: Z18065-ABD (designed binder)
chain: AQHDEALEVDAKYAKERNKAAYEILYLPNLTQAQKWAFIWKLDDDPSQSSELLSEAKKLNDSQAPKVDYVLAEAKVLANRELDKYGVSDYYKNLINNAKTVEGVKALIDEILAALPYVPG
notes: domain: GA3
B4: Z18104-ABD (designed binder)
chain: AQHDEALEVDAKYAKERNFAAYEILYLPNLTNSQKWAFIWKLDDDPSQSSELLSEAKKLNDSQAPKVDYVLAEAKVLANRELDKYGVSDYYKNLINNAKTVEGVKALIDEILAALPYVPG
notes: domain: GA3
B5: Z18130-ABD (designed binder)
chain: AQHDEALEVDAKYAKERNSAAQEILYLPNLTNRQKWAFIWKLDDDPSQSSELLSEAKKLNDSQAPKVDYVLAEAKVLANRELDKYGVSDYYKNLINNAKTVEGVKALIDEILAALPYVPG
notes: domain: GA3
B6: Z18119-ABD (designed binder)
chain: AQHDEALEVDAKYAKERNQAAYEILYLPNLTNSQIWAFIWKLDDDPSQSSELLSEAKKLNDSQAPKVDYVLAEAKVLANRELDKYGVSDYYKNLINNAKTVEGVKALIDEILAALPYVPG
notes: domain: GA3
B7: Z18078-ABD (designed binder)
chain: AQHDEALEVDAKYAKERNTAAQEILYLPNLTSGQKWAFIWKLDDDPSQSSELLSEAKKLNDSQAPKVDYVLAEAKVLANRELDKYGVSDYYKNLINNAKTVEGVKALIDEILAALPYVPG
notes: domain: GA3
B8: Z18115-ABD (designed binder)
chain: AQHDEALEVDAKYAKERNFAAYEILYLPNLTNAQKWAFIWKLDDDPSQSSELLSEAKKLNDSQAPKVDYVLAEAKVLANRELDKYGVSDYYKNLINNAKTVEGVKALIDEILAALPYVPG
notes: domain: GA3
B9: Z18090-ABD (designed binder)
chain: AQHDEALEVDAKYAKERNDAAYEILYLPNLTNQQKWAFIWKLADDPSQSSELLSEAKKLNDSQAPKVDYVLAEAKVLANRELDKYGVSDYYKNLINNAKTVEGVKALIDEILAALPYVPG
notes: domain: GA3
B10: Z18129-ABD (designed binder)
chain: AQHDEALEVDAKYAKERNSAAYEILYLPNLTQAQKWAFIWKLDDDPSQSSELLSEAKKLNDSQAPKVDYVLAEAKVLANRELDKYGVSDYYKNLINNAKTVEGVKALIDEILAALPYVPG
notes: domain: GA3
B11: Z18133-ABD (designed binder)
chain: AQHDEALEVDAKYAKERNQAAYEILYLPNLTQKQKWAFIWKLDDDPSQSSELLSEAKKLNDSQAPKVDYVLAEAKVLANRELDKYGVSDYYKNLINNAKTVEGVKALIDEILAALPYVPG
notes: domain: GA3
B12: Z18116-ABD (designed binder)
chain: AQHDEALEVDAKYAKERNAAAYEILYLPNLTQAQKWAFIWKLDDDPSQSSELLSEAKKLNDSQAPKVDYVLAEAKVLANRELDKYGVSDYYKNLINNAKTVEGVKALIDEILAALPYVPG
notes: domain: GA3
B13: Z18099-ABD (designed binder)
chain: AQHDEALEVDAKYAKERNEAAHEILYLPNLTQKQIWAFIWKLDDDPSQSSELLSEAKKLNDSQAPKVDYVLAEAKVLANRELDKYGVSDYYKNLINNAKTVEGVKALIDEILAALPYVPG
notes: domain: GA3
B14: Z18128-ABD (designed binder)
chain: AQHDEALEVDAKYAKERNSAAYEILYLPNLTNQQRWAFIWKLDDDPSQSSELLSEAKKLNDSQAPKVDYVLAEAKVLANRELDKYGVSDYYKNLINNAKTVEGVKALIDEILAALPYVPG
notes: domain: GA3
B15: Z18066-ABD (designed binder)
chain: AQHDEALEVDAKYAKERNEAAYEILYLPNLTNSQKWAFIWKLDDDPSQSSELLSEAKKLNDSQAPKVDYVLAEAKVLANRELDKYGVSDYYKNLINNAKTVEGVKALIDEILAALPYVPG
notes: domain: GA3
B16: Z18111-ABD (designed binder)
chain: AQHDEALEVDAKYAKERNHAAYEILYLPNLTQQQKWAFIWKLDDDPSQSSELLSEAKKLNDSQAPKVDYVLAEAKVLANRELDKYGVSDYYKNLINNAKTVEGVKALIDEILAALPYVPG
notes: domain: GA3
B17: Z18124-ABD (designed binder)
chain: AQHDEALEVDAKYAKERNDAAYEILQLPNLTNQQHWAFIWKLDDDPSQSSELLSEAKKLNDSQAPKVDYVLAEAKVLANRELDKYGVSDYYKNLINNAKTVEGVKALIDEILAALPYVPG
notes: domain: GA3
B18: Z18117-ABD (designed binder)
chain: AQHDEALEVDAKYAKERNKAAFEILYLPNLTQEQKWAFIWKLDDDPSQSSELLSEAKKLNDSQAPKVDYVLAEAKVLANRELDKYGVSDYYKNLINNAKTVEGVKALIDEILAALPYVPG
notes: domain: GA3
B19: Z18095-ABD (designed binder)
chain: AQHDEALEVDAKYAKERNAAAFEILYLPNLTQSQKWAFIWKLDDDPSQSSELLSEAKKLNDSQAPKVDYVLAEAKVLANRELDKYGVSDYYKNLINNAKTVEGVKALIDEILAALPYVPG
notes: domain: GA3
B20: Z18135-ABD (designed binder)
chain: AQHDEALEVDAKYAKERNTAAYEILYLPNLTKSQQWAFIWKLDDDPSQSSELLSEAKKLNDSQAPKVDYVLAEAKVLANRELDKYGVSDYYKNLINNAKTVEGVKALIDEILAALPYVPG
notes: domain: GA3
B21: Z18074-ABD (designed binder)
chain: AQHDEALEVDAKYAKERNQAAFEILYLPNLTNAQKWAFIWKLDDDPSQSSELLSEAKKLNDSQAPKVDYVLAEAKVLANRELDKYGVSDYYKNLINNAKTVEGVKALIDEILAALPYVPG
notes: domain: GA3
B22: Z18092-ABD (designed binder)
chain: AQHDEALEVDAKYAKERNIAAYEILWLPNLTNAQKWAFIWKLDDDPSQSSELLSEAKKLNDSQAPKVDYVLAEAKVLANRELDKYGVSDYYKNLINNAKTVEGVKALIDEILAALPYVPG
notes: domain: GA3
B23: Z18064-ABD (designed binder)
chain: AQHDEALEVDAKYAKERNKAAYEILYLPNLTNAQKWAFIWKLDDDPSQSSELLSEAKKLNDSQAPKVDYVLAEAKVLANRELDKYGVSDYYKNLINNAKTVEGVKALIDEILAALPYVPG
notes: domain: GA3
B24: Z18096-ABD (designed binder)
chain: AQHDEALEVDAKYAKERNEAAYEILYLPNLTSSQKWAFIWKLDDDPSQSSELLSEAKKLNDSQAPKVDYVLAEAKVLANRELDKYGVSDYYKNLINNAKTVEGVKALIDEILAALPYVPG
notes: domain: GA3
B25: Z18131-ABD (designed binder)
chain: AQHDEALEVDAKYAKERNEAAYEILYLPNLTAAQKWAFIWKLDDDPSQSSELLSEAKKLNDSQAPKVDYVLAEAKVLANRELDKYGVSDYYKNLINNAKTVEGVKALIDEILAALPYVPG
notes: domain: GA3
B26: Z18108-ABD (designed binder)
chain: AQHDEALEVDAKYAKERNDAAYEILYLPNLTKQQKWAFIWKLDDDPSQSSELLSEAKKLNDSQAPKVDYVLAEAKVLANRELDKYGVSDYYKNLINNAKTVEGVKALIDEILAALPYVPG
notes: domain: GA3
B27: Z18110-ABD (designed binder)
chain: AQHDEALEVDAKYAKERNKAAYEILYLPNLTQQQIWAFIWKLDDDPSQSSELLSEAKKLNDSQAPKVDYVLAEAKVLANRELDKYGVSDYYKNLINNAKTVEGVKALIDEILAALPYVPG
notes: domain: GA3
B28: Z18101-ABD (designed binder)
chain: AQHDEALEVDAKYAKERNSAAYEILYLPNLTNLQKWAFIWKLDDDPSQSSELLSEAKKLNDSQAPKVDYVLAEAKVLANRELDKYGVSDYYKNLINNAKTVEGVKALIDEILAALPYVPG
notes: domain: GA3
B29: Z18069-ABD (designed binder)
chain: AQHDEALEVDAKYAKERNEAAYEILYLPNLTASQRWAFIWKLDDDPSQSSELLSEAKKLNDSQAPKVDYVLAEAKVLANRELDKYGVSDYYKNLINNAKTVEGVKALIDEILAALPYVPG
notes: domain: GA3
B30: Z18118-ABD (designed binder)
chain: AQHDEALEVDAKYAKERNAAAYEILYLPNLTAGQKWAFIWKLDDDPSQSSELLSEAKKLNDSQAPKVDYVLAEAKVLANRELDKYGVSDYYKNLINNAKTVEGVKALIDEILAALPYVPG
notes: domain: GA3
B31: Z18106-ABD (designed binder)
chain: AQHDEALEVDAKYAKERNAAAFEILYLPNLTSAQVWAFIWKLDDDPSQSSELLSEAKKLNDSQAPKVDYVLAEAKVLANRELDKYGVSDYYKNLINNAKTVEGVKALIDEILAALPYVPG
notes: domain: GA3
B32: Z18137-ABD (designed binder)
chain: AQHDEALEVDAKYAKERNSAAYEILYLPNLTSQQKWAFIWKLDDDPSQSSELLSEAKKLNDSQAPKVDYVLAEAKVLANRELDKYGVSDYYKNLINNAKTVEGVKALIDEILAALPYVPG
notes: domain: GA3

The target of this test is T1, human PD-L1 Fc Chimera (R&D Systems, cat. no. 156-B7-100) (human, UniProt Q9NZQ7 19-239, biotinylated with Sulfo-NHS-LC-Biotin in ELISA and AlphaLISA; not biotinylated in SPR).
T1 construct: bought; also called hPD-L1; biotinylated hPD-L1; not shown: Fc part of the bought Fc chimera, not described
T1 sequence (Q9NZQ7 19-239, change not shown): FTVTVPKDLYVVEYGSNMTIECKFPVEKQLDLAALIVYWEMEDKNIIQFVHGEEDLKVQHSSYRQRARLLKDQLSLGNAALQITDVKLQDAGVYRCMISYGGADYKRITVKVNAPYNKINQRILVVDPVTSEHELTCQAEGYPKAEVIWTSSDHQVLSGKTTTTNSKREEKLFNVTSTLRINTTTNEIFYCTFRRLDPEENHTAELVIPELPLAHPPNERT
In words: ELISA titration, captured Z-ABD. Background: ELISA stands for enzyme-linked immunosorbent assay.
By EC50 is commonly meant the concentration that produces a half-maximal response. A lower EC50 goes with higher potency in that assay. Molecule B1 showed an EC50 of 0.083 nM.
As for B2, the EC50 was determined as 0.076 nM.
In the case of B3 it was 0.071 nM; in that of B4, 0.075 nM.
In the case of B5 it was 0.074 nM; in that of B6, 0.1 nM; in that of B7, 0.078 nM.
In the case of B8, the EC50 is 0.077 nM.
In the case of B9 it was 0.088 nM; in that of B10, 0.062 nM.
The molecule B11 had an EC50 of 0.077 nM.
In the case of B12 it was 0.074 nM; in that of B13, 0.087 nM.
In the case of B14 it was 0.077 nM; in that of B15, 0.073 nM.
In turn, B16 had an EC50 of 0.078 nM.
Turning to B17, the EC50 is 0.084 nM.
In the case of B18 it was 0.081 nM.
B19 displayed an EC50 of 0.073 nM.
With B20, the EC50 was 0.085 nM.
On to B21, for which the concentration for a half-maximal effect (EC50) came out at 0.07 nM.
With B22, the EC50 is 0.077 nM.
On to B23, for which the EC50 turned out to be 0.068 nM.
On to B24, for which the EC50 was 0.08 nM.
As to B25, the EC50 turned out to be 0.087 nM.
On to B26, for which the EC50 amounted to 0.078 nM.
In the case of B27 it was 0.081 nM; in that of B28, 0.067 nM.
For B29, the response was half-maximal at 0.078 nM (EC50).
Take B30: the EC50 was determined as 0.079 nM.
In the case of B31, the EC50 was determined as 0.083 nM.
In the case of B32 it was 0.074 nM.
